# From publication PMC4336329 (PLoS ONE, 2015)
# The campaign covered roughly 310,000 compounds. About 2,200 (0.71%) showed an effect of 50% or more. Effects have a minus sign here. The list shows a part of the results.
# Target: human ether-à-go-go-related gene (hERG) potassium channel (human, UniProt Q12809)
# Test: primary screen, population patch clamp on CHO cells stably expressing hERG
# Sequence of human ether-à-go-go-related gene (hERG) potassium channel (Q12809 whole entry, looked up): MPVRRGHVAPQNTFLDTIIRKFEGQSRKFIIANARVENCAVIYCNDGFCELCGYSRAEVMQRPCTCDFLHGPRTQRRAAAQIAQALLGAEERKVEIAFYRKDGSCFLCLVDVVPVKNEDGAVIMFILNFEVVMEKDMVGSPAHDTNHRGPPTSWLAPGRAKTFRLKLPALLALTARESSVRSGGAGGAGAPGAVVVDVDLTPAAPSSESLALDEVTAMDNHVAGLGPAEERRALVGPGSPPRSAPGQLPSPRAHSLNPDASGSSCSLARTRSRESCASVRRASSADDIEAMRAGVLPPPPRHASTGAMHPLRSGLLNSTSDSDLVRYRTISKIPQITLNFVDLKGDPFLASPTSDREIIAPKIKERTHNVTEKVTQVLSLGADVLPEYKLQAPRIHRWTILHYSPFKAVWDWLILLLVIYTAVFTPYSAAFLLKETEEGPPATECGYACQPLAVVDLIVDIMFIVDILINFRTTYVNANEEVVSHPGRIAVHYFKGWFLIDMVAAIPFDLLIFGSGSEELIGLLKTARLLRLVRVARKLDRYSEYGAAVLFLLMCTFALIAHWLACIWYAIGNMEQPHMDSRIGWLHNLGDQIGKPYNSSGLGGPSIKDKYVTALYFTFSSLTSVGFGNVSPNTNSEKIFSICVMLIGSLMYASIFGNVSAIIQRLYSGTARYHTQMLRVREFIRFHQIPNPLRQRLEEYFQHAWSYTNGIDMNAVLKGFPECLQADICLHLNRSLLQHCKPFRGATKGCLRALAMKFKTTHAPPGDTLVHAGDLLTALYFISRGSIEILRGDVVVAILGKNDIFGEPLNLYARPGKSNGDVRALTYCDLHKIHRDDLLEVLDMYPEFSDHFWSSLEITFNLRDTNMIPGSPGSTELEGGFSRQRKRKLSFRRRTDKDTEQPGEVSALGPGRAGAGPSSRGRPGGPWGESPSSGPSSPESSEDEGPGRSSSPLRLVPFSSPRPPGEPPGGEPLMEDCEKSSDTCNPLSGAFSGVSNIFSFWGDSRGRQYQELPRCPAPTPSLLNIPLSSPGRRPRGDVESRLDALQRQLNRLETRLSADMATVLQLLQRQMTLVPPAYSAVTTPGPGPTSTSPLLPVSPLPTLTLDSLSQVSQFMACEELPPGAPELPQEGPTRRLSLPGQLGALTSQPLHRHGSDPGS
row,SMILES,"hERG current change (%, negative = inhibition) at 1uM [%]"
1,CC(C)Sc1nc(N2CCCC2)c2c(c1C#N)CC(C)(C)OC2,-0.586
2,CSc1ccccc1OCc1cc(C(=O)N[C@H]2CCCCNC2=O)no1,4.94
3,O=C(Oc1ccc2c(c1)OCO2)c1ccc(F)cc1Cl,-3.08
4,COc1cccc(-n2c(CN3CCOCC3)nc3ccc([N+](=O)[O-])cc3c2=O)c1,7.9
5,COC(=O)c1c(NC(=O)COC(=O)c2ccccn2)sc(C)c1C,10.7
6,CC(C)c1nnc(NC(=O)CCc2ccccc2)s1,18.7
7,CCOC(=O)CSc1nnc(-c2cccnc2)n1C,8.02
8,Cc1ccc(Cn2c(SCCN3CCOCC3)nc3c2c(=O)n(C)c(=O)n3C)cc1,-6.9
9,O=C(Cn1c(C(F)(F)F)nc2ccccc21)NCCN1CCCC1,8.48
10,CCOc1ccc2nc(NC(=O)CN3CCN(c4ccccn4)CC3)sc2c1,3.81
11,Nc1nnc(SCC(=O)NC2CCCC2)s1,15.1
12,CCc1noc(C)c1C(=O)OCC(=O)Nc1ccc(F)cc1Cl,13
13,CC(=O)c1cccc(NC(=O)CCS(=O)(=O)c2cccc3nsnc23)c1,8.23
14,COc1ccc(C(C)=O)cc1CSc1nc2cc(Cl)ccc2o1,15.4
15,N#Cc1ccccc1COC(=O)c1ccc(Br)o1,12.9
16,COc1ccc(C2C(C(=O)OCC3CCCO3)=C(C)NC3=C2C(=O)CC(c2ccco2)C3)cc1O (centres unmarked),16.6
17,COc1ccc(-c2[nH]ncc2C2N=C(N)Nc3nc4ccccc4n32)cc1 (centres unmarked),20.8
18,COc1cc(OC)cc(C(=O)N[C@H](C(=O)OCC(N)=O)C(C)C)c1,13.3
19,COC(=O)/C(=C1\Oc2ccc(C(C)(C)C)cc2S1)C(F)(F)F,3.38
20,Cn1c(=O)cc(SCC(=O)NCc2ccc(F)cc2)c2ccccc21,6.18
21,CO/N=C(/C(=O)N[C@@H]1C(=O)N2C(C(=O)[O-])=CCS[C@H]12)c1cnc(N)s1.[Na+],16
22,CC1=NN(C(=O)CCc2ccccc2)C(O)(c2ccncc2)C1 (centres unmarked),3.74
23,Cc1c(OCc2nn[nH]n2)ccc2c3c(c(=O)oc12)CCCC3,-8.18

row,SMILES,"hERG current change (%, negative = inhibition) at 1uM [%]"
1,CC(OC(=O)CCc1nc2ccccc2[nH]c1=O)c1ccccc1 (centres unmarked),12.6
2,O=C1c2ccccc2-c2nc3ccccc3cc21,12.9
3,CC(C)(C)NC(=O)c1cc(NC(=O)c2cccs2)cc(NC(=O)c2cccs2)c1,18.6
4,Cc1c(Cl)cccc1-n1c(SCC(=O)NCc2cccs2)nnc1-c1ccncc1,-8.68
5,CCOc1ccc(CC(=O)NCCS(=O)(=O)N2CCN(c3ccccc3)CC2)cc1,10.2
6,CCOC(=O)C1CCCN(C(=O)Cn2ncc3c([nH]c4ccc(C)cc43)c2=O)C1 (centres unmarked),12.8
7,COCCn1c(=O)c2ccccc2c2ccccc2c1=O,11.4
8,O=C1CC(N(CCc2ccccc2)C(=S)Nc2ccccc2)C(=O)N1c1ccc(Br)cc1 (centres unmarked),12.5
9,O=C(CSc1nnnn1C1CCCCC1)NCc1ccco1,10.7
10,O=C(CCc1nnc2ccc(NCc3ccco3)nn12)Nc1ccc(F)cc1F,-0.592
11,COc1ccc(Cl)cc1C(=O)NC(C)C,6.02
12,Cc1ccccc1NC(=O)Cn1nnc2c(cnn2-c2ccc(F)cc2)c1=O,5.23
13,Cc1ccc(S(=O)(=O)CC(=O)N(C)C)cc1,10.9
14,COc1cc2c3c([nH]c2cc1F)C(=O)NCC3,12.6
15,O=C(CN1CCN(c2ccccc2F)CC1)c1c[nH]c2ccc(F)cc12,-9.17
16,O=C(COC(=O)c1ccccc1-n1cnnn1)c1ccccc1,5.7
17,O=C(NCC1CCCO1)c1ccc(NC(=O)c2ccc(Br)cc2)cc1 (centres unmarked),15
18,CCN(CC)C(=O)CN(c1cc2c(cc1OC)oc1ccccc12)S(=O)(=O)c1ccccc1,5.49
19,CCSCc1nnc(SCC(=O)Nc2nccs2)n1CC,7.03
20,O=C(CCl)N(c1ccccc1)c1c[nH]c2ccccc12,9.71
21,CSCC[C@H](NC(=O)C1=NN(c2c(F)c(F)cc(F)c2F)C(=O)CC1)c1nc2ccccc2[nH]1,-6.71
22,CC1(C)Cc2c(sc3nc(-c4ccccc4Cl)n(N)c(=O)c23)CO1,10
23,Cc1nc2ccccc2n1C(=O)N1CCOCC1,10.3

row,SMILES,"hERG current change (%, negative = inhibition) at 1uM [%]"
1,Cc1cc(Nc2cc(Cl)cc(Cl)c2)nc(N)n1,1.78
2,CC(C)(C)c1ccc(C(=O)N/N=C/c2ccc(OCCCF)cc2)cc1,7.1
3,NS(=O)(=O)c1ccc(NC(NC(=O)c2cccnc2)C(Cl)(Cl)Cl)cc1 (centres unmarked),8.45
4,CCOC(=O)c1cc(-c2ccc(OC)cc2)n[nH]1,11.4
5,CSc1ccccc1NC(=O)c1cc2c(=O)n3ccccc3nc2s1,2.55
6,Cn1c(=O)n(C)c2cc(/C=N/n3cnnc3)ccc21,7.06
7,Cc1cc(OCC(=O)Nc2ccccc2N2CCCCC2)ccc1C(C)C,10
8,CCCc1cc(=O)oc2c(C)c(OCC(=O)Nc3ccccn3)ccc12,6.71
9,Cc1ccc(S(=O)(=O)N2CCC(C(=O)NCCCN3CCCC3=O)CC2)cc1C,5.98
10,CCCOc1cc(NCc2ccccc2)c2ncn(C(C)C)c2c1,6.72
11,COc1ccccc1OCC#CCN1CCCCCC1.O=C(O)C(=O)O,10.8
12,Cc1ncc(CO)c(/C=N/N=C/c2ccccc2O)c1O,11.4
13,CCOc1ccc(NC(=O)CN2C(=O)CSC(C)C2=O)cc1 (centres unmarked),16.1
14,Cl.Clc1ccccc1CN1CCNCC1,15.1
15,c1ccc(C2(c3ccccc3)OCC(Cn3cncn3)O2)cc1 (centres unmarked),4.74
16,O=C(NCCc1ccccc1)c1ccc(Br)o1,-0.034
17,C/C(=N\NC(=O)C1COc2ccccc2O1)c1ccc(N2CCOCC2)cc1 (centres unmarked),6.29
18,O=C(O)C(=O)O.O=[N+]([O-])c1cccc(CN2CCN(Cc3ccc(Cl)cc3)CC2)c1,-27.2
19,CCN(CC(=O)NC1CCS(=O)(=O)C1)Cc1nc2c(Br)cc(Br)cc2c(=O)[nH]1 (centres unmarked),15.4
20,Cc1c(=O)n(OCc2ccc(Cl)cc2)c2ccccc2[n+]1[O-],21.9
21,CCc1c(C)sc(NC(=S)Nc2cccnc2)c1C(=O)OC,6.46
22,CCOC(=O)c1cc2nc(Nc3ccc(OC)cc3)sc2s1,1.31
23,CSc1cccc(NC(=O)COC(=O)c2ccccn2)c1,-4.49

row,SMILES,"hERG current change (%, negative = inhibition) at 1uM [%]"
1,Cc1ccc(C)c(NC(=O)CN(C)C(=O)[C@@H](NC(N)=O)C(C)C)c1,10.1
2,Cc1ccc(NC(=O)c2cnccn2)c(Br)c1,14.7
3,CCn1c(CCNC(=O)c2ccco2)nc2ccccc21,11.3
4,COC(c1ccccc1)c1c(-c2ccccc2)nn(C)c1Cl (centres unmarked),7.94
5,COCCNC(=O)C(c1cccs1)N(C(=O)Cn1nnc2ccccc21)c1ccc(OC)cc1 (centres unmarked),13.6
6,CC(C)C(=O)Nc1cccc(C(=O)Nc2nncs2)c1,6.79
7,CCCN1CCC(=O)N([C@H](CO)CC(C)C)CC1,20.4
8,COC(=O)COc1cc(OCC(=O)OC)c2c(C)c(Cl)c(=O)oc2c1,13.2
9,CCCNC(=O)N1[C@H]2CC[C@@H]1C(C(=O)OC)=C(c1ccc(OC(F)(F)F)cc1)C2,-0.757
10,CC(NS(=O)(=O)c1ccc(Br)cc1)c1ccccc1 (centres unmarked),12.3
11,CC(C)c1[nH]c(=O)c(C#N)c2c1CSC(C)(C)C2,6.8
12,Cc1cccc(C(=O)Nc2nnc(COc3ccccc3)s2)c1,9.7
13,CC(=O)N(Cc1ccco1)c1nc(C(=O)Nc2ccc(Cl)cc2)c(C)s1,7.14
14,Cc1ccccc1CSCCC(=O)NCCC1=CCCCC1,3.92
15,O=C1CCN(S(=O)(=O)c2ccc(Cl)cc2)N1,9.36
16,Cc1cc(=O)oc2cc(NC(=O)CCOc3ccccc3)ccc12,13.5
17,COc1ccc(OC)c(C(=O)Nc2c(O)ccc3ccccc23)c1,14.2
18,Cc1ccc(NS(=O)(=O)c2ccc3c(c2)CCN3C(=O)CCC(=O)O)cc1Cl,17.9
19,Cc1ccc(NC(=O)CCNS(=O)(=O)c2ccc3[nH]c(=O)oc3c2)cc1C,8.64
20,CC(=O)N1c2ccc(S(=O)(=O)NCCC(=O)NCc3ccc(Cl)cc3)cc2CC1C (centres unmarked),9.6
21,Cc1ccccc1C(=O)Nc1ccc(S(=O)(=O)N2CCCC2)cc1,-6.35
22,Cl.O=C(CSc1nc2ccc(Cl)cc2[nH]1)c1cccs1,8.42
23,CC(=O)c1sc(NC(=O)CCOc2ccccc2)nc1C,8.12
